Test results from ChEMBL document CHEMBL1201862, “PubChem BioAssay data set” (2004).
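Tested at 5 concentrations; 48 h exposure; 96-well plates; endpoints linearly interpolated, else capped at highest concentration. GI50 marks 50% less growth.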 Active and inactive are the calls of the source. Rule as the data show it: active = GI50 up to about 1.1 µM and inactive = higher.

These molecules were tested on NCI-H322M (assay: DTP human tumour cell line panel, 48 h).

Structure (SMILES) | GI50
CC(=O)Nc1ccc(-c2nc3ccccc3s2)cc1Cl | inactive: 56.1 µM
O=C(Nc1ccc(Nc2ccc3c(c2)C(=O)c2ccccc2C3=O)c2c1C(=O)c1ccccc1C2=O)c1ccccc1 | inactive: > 100 µM
CSCCC(NC(=O)C(Cc1c[nH]c2ccccc12)NC(=O)CCNC(=O)OC(C)(C)C)C(=O)NC(CC(=O)O)C(=O)NC(Cc1ccccc1)C(N)=O (stereo unspecified) | inactive: > 50 µM
COc1ccc2[nH]c3c(C)c4c(c(C)c3c2c1)CN(C)CC4 | inactive: 25.7 µM
CS(=O)(=O)NNS(=O)(=O)c1ccccc1 | inactive: > 100 µM
CC(C)/C(Cl)=N\OC(NC(=O)P(=O)(c1ccccc1)c1ccccc1)(C(F)(F)F)C(F)(F)F | inactive: 16.1 µM
Cc1cc(O)cc2c1c(=O)c1ccccc1n2C | inactive: > 100 µM
O=C1/C(=C\c2cccc(Oc3ccccc3)c2)S(=O)(=O)C(c2ccccc2)N1c1cccc(Cl)c1 (stereo unspecified) | inactive: > 100 µM
Cc1cn(CCCCCOC(=O)NC(CCCNC(N)=O)C(=O)O)c(=O)[nH]c1=O (stereo unspecified) | inactive: > 100 µM
C[C@]12CCc3nonc3C1CC[C@@H]1C2CC[C@@]2(C)C1CC[C@@H]2O (stereo partly specified) | inactive: > 100 µM
C=C1[C@H]2O[C@H]2[C@@H](OC(C)=O)[C@@]2(C)[C@@H](OC(C)=O)C[C@@H](OC(=O)CCC)[C@@](C)(O)[C@@H]2[C@@H](OC(C)=O)[C@]2(O)[C@@H](C)C(=O)O[C@H]2[C@H]1Cl | inactive: > 100 µM
CC(=O)CCn1[nH]c(=O)c(Cl)c(Cl)c1=O | inactive: > 100 µM
O=[N+]([O-])c1ccc(/C=N/C23CC4CC(CC(C4)C2)C3)cc1 | inactive: > 100 µM
COc1cccc(C2N3CCCCC3[C@@H]3c4[nH]c5ccccc5c4CCN23)c1OC (stereo partly specified) | inactive: 15.4 µM
O=[N+]([O-])c1nc(-c2ccccn2)[nH]c1[N+](=O)[O-] | inactive: 40.4 µM
COc1cccc(C2CC(C)(O)Oc3cc4c(cc32)OCO4)c1O (stereo unspecified) | inactive: 34.2 µM
COC(=O)C(/C(=N/N)C(=O)Nc1cc(Cl)ccc1Cl)c1nc2ccc([N+](=O)[O-])cc2nc1O (stereo unspecified) | inactive: > 100 µM
COC(=O)C1C(C(=O)OC)C2C(=O)C3C(C(=O)OC)C(C(=O)OC)C3C(=O)C12 (stereo unspecified) | inactive: > 100 µM
CC1=CC(=O)/C(=C/n2c(=S)[nH]c3cc(C)ccc32)C(=O)O1 | inactive: > 100 µM
CN(C)/C=C/C(=O)c1cccc(C(=O)/C=C/N(C)C)n1 | inactive: > 100 µM
O=C(/C=C/c1ccccc1)c1cc(Br)ccc1O | inactive: 19.9 µM
CNC(=O)OC(C)CN1c2ccccc2Sc2ccccc21 (stereo unspecified) | inactive: 84.5 µM

Structure (SMILES) | GI50
COC(=O)c1nc(N)nc(O)c1CCCCCc1c(O)nc(N)nc1C(=O)OC | inactive: > 50 µM
CC(=O)O[C@@H]1[C@H]2[C@@H](OC(=O)c3ccccc3)[C@@H](C)C[C@]2(O)[C@H](OC(C)=O)[C@@]2(C)[C@@H]3CC(C)(C)C(=O)[C@]3(OC(C)=O)C[C@@]12C | inactive: > 25 µM
Cc1cccc(C)c1N1C(=O)C(=O)C(c2nc3ccccc3s2)/C(=N\N)C1=O (stereo unspecified) | inactive: > 100 µM
O=C(Nc1ccccc1)O/N=C(/CBr)c1ccccc1 | inactive: 18.7 µM
COc1ccc(/C=C/C(=O)c2cccc(C(=O)/C=C/c3ccc(OC)c(OC)c3)n2)cc1OC | inactive: > 100 µM
Cc1ccccc1-n1c(C)nc(-c2ccccc2)cc1=O | inactive: > 100 µM
C=C(C)CC(C(=O)O)c1ccc(C)cc1 (stereo unspecified) | inactive: > 100 µM
Cc1nc2ccccc2c(=O)n1-c1n[nH]c2ccccc12 | inactive: > 100 µM
COc1ccc(C2SCC(=O)N2NC(=O)C(C)Oc2ccc(Cl)cc2Cl)cc1 (stereo unspecified) | inactive: 31 µM
C=CCn1c2c(c3ccccc3c1=O)C(=O)c1ccccc1-2 | inactive: > 100 µM
O=C(COc1ccc(Cl)c(Cl)c1)Nc1ccc[n+](Cc2ccc(S(=O)(=O)F)c(Cl)c2)c1 | inactive: > 100 µM
COc1ccc([C@H]2[C@H]3COC(=O)[C@H]3C(C#N)=C3Sc4ccccc4N32)cc1 | inactive: 29.6 µM
CC1CC[C@@]2(OC1)OC1C[C@H]3[C@@H]4CC[C@H]5CC(OC6OC(CO)C(OC7OC(CO)C(O)C(O)C7OC7OC(CO)C(O)C(O)C7O)C(O)C6O)CCC5(C)[C@H]4CCC3(C)C1[C@@H]2C (stereo partly specified) | inactive: 1.73 µM
O=C(Cc1ccccc1)NN1C(=O)/C(=C\c2ccccc2O)S/C1=N\c1ccccc1 | inactive: > 100 µM
CC1=C/C(=N/N2C(=O)/C(=C/c3ccc(Cl)cc3)N=C2c2ccccc2)CC(C)(C)C1 | inactive: > 100 µM
O=C(NC(Nc1ccc(F)c(Cl)c1)(C(F)(F)F)C(F)(F)F)OCc1ccccc1 | inactive: 72.1 µM
O=[N+]([O-])c1ccc2sc(/C=N/c3cnccn3)cc2c1 | inactive: 32.1 µM
C1CCSCCCCSCCCCSCCCCSC1 | inactive: > 100 µM
Nc1ccn(CCNCCn2cnc3nc(N)[nH]c(=O)c32)c(=O)n1 | inactive: > 100 µM
Cc1cccc(C(C)C)c1NC(=O)CCl | inactive: 70.6 µM
O=[N+]([O-])c1cccc(C2=NN(c3ccccc3)C3c4cc(Br)ccc4OCC23)c1 (stereo unspecified) | inactive: > 100 µM
C/C=C/C(=O)N1C(=O)OC[C@@H]1c1ccccc1 | inactive: 17.9 µM

Structure (SMILES) | GI50
N#Cc1nc(/C=C/c2cccs2)oc1N | inactive: 91.6 µM
COc1ccc(C(=O)c2ccc(-n3c4ccccc4c4ccc5c(c43)C(=O)C=CC5=O)cc2)cc1 | inactive: 7.35 µM
CC1OCC2OC(C)OC(C3C4=C(CC(C)(C)CC4=O)OC4=C3C(=O)CC(C)(C)C4)C2O1 (stereo unspecified) | inactive: > 100 µM
C[C@]12CC[C@H](O)CC1=CC[C@@H]1[C@@H]2CC[C@]2(C)c3nc(Cl)ccc3C[C@@H]12 | inactive: 29.9 µM
C[N+](C)(C)CC(=O)N/N=C/c1ccncc1 | inactive: > 100 µM
COc1cc2[nH]c3c(c2cc1OC)CCN[C@@]31CC[C@@]2(CC3c4c(cc(OC)c(O)c42)CCN3C)C[C@@H]1OC (stereo partly specified) | inactive: 62.8 µM
COc1cc(CNc2cnc3ccc(N)cc3n2)cc(OC)c1OC | inactive: > 100 µM
COC(=O)C1=C(O)C(C(=O)OC)[C@]2(O)[C@H](C(=O)OC)[C@H]1C[C@@H](c1ccc([N+](=O)[O-])cc1)[C@H]2C(=O)OC (stereo partly specified) | inactive: 20.9 µM
CC(=O)O[C@H]1C#C/C=C\C#CC[C@@H]2C(=O)N[C@@H]12 | inactive: > 100 µM
O=S(=O)(/N=S(/Nc1ccccc1)C(F)(F)Cl)c1ccccc1 (stereo unspecified) | inactive: > 100 µM
CCN(CC)CCNc1ccc([N+](=O)[O-])c2nc3ccc(OC)cc3c(N)c12 | inactive: 1.33 µM
OCC1C(O)C(O)[C@@H]2SCCN12 (stereo partly specified) | inactive: > 100 µM
NC(CCOCCP(=O)(O)CCC1C=CC=CC1)C(=O)O (stereo unspecified) | inactive: > 100 µM
CC(C)[Si](OC1=CCCCCC12C(=O)N(C)c1ccccc12)(C(C)C)C(C)C (stereo unspecified) | inactive: 18.9 µM
N=C1C=C(N)C(=O)c2[nH]c(=O)ccc21 | inactive: 2.23 µM
Cc1nc2nnnn2c2c1C(=O)Nc1ccccc1N2 | inactive: > 100 µM
Cc1ccc(C(=O)N/N=C(\N=N\c2ccccc2[N+](=O)[O-])c2ccc(N(C)C)cc2)cc1 | inactive: > 100 µM
CC1=NNC(=O)C1C1CC(c2c[nH]c3ccccc23)=NN(C(N)=O)C1=O (stereo unspecified) | inactive: > 100 µM
Cc1cc(S(=O)(=O)Nc2nc(Nc3ccc4ccccc4c3)n[nH]2)c(S)cc1Cl | inactive: 74.6 µM
Cc1ccc2c(c1)NC(=O)CCSSCCC(=O)N2 | inactive: > 100 µM
COc1cc(/C=C(\C#N)c2ccccc2)cc(OC)c1 | inactive: > 100 µM
CCCSc1ccc2[nH]c(N3C(=O)/C(=C/c4ccc(SC)cc4)N=C3c3ccccc3)cc2c1 | inactive: 25.1 µM

Structure (SMILES) | GI50
C=CCN1CCC(OC(=O)C(O)(C#CC)C2CCCC2)CC1 (stereo unspecified) | inactive: > 100 µM
O=C(Nc1cc(Cl)c(Cl)cc1Cl)C(=O)C1C(=O)NC(=S)NC1=O | inactive: > 100 µM
CCOC(=O)c1cnc2[nH]ccn2c1=O | inactive: > 10 µM
CCc1ncnc2cc(OCC3CO3)c(OC)cc12 (stereo unspecified) | inactive: 13.5 µM
CC(C)(Oc1ccc(C(=O)c2ccc(Cl)cc2)cc1Cl)C(=O)N1CCN(c2ccccc2)CC1 | inactive: > 100 µM
CCC1=CC2CC(C(=O)OC)C1(N(C)C)C2=O (stereo unspecified) | inactive: > 100 µM
Cn1c2ccccc2c2cc(N3CCCC3)c3c(c21)C(=O)N(c1ccccc1)C3=O | inactive: > 100 µM
C#CCOC(=O)C(N)CCSC (stereo unspecified) | inactive: > 100 µM
O=C(O)c1ccc(C=C2Sc3ccccc3S2)cc1 | inactive: > 100 µM
O=S(=O)(O)c1ccc2c(/N=N/c3cccc4ccccc34)c(O)ccc2c1 | inactive: > 100 µM
C/C=C/C=C\C=C/C(O)C(C)C(CCC(C)C1OC(=O)C=CC1C)OP(=O)(O)O (stereo unspecified) | active: 0.555 µM
CC(=O)[C@H]1[C@H](O)C[C@@]2(C)[C@@H]3CCc4cc(O)c(OC5OC(CO)C(O)C(O)C5O)cc4C3(C)C(=O)C[C@]12C (stereo partly specified) | inactive: > 100 µM
C=C(C)[C@H](O)C(O)CC(C)[C@@H]1CCC23CC12CCC1[C@@]2(C)CCC(OC(C)=O)C(C)(C)C2CC(OC2OC(COC(C)=O)C(O)C(O)C2O)[C@]13C (stereo partly specified) | inactive: 6.32 µM
C[C@]12CCC[C@H](Cl)C1(O)C[C@H](C(=O)O)CC2 (stereo partly specified) | inactive: > 100 µM
O=C(O)CN(c1ccccc1)S(=O)(=O)c1ccc(Cl)cc1 | inactive: > 100 µM
COc1cc2c(cc1OC)-c1[nH]c3ccc([N+](=O)[O-])cc3c1CC(=O)N2 | inactive: 3 µM
CN(C)c1n2c3cc([N+](=O)[O-])ccc3[n+]3c(N(C)C)n4ccccc4c3c2c2cccc[n+]12.[O-][Cl+3]([O-])([O-])[O-].[O-][Cl+3]([O-])([O-])[O-] | inactive: > 100 µM
C[n+]1c(-c2ccc(/C=N/NC(=O)c3ccc(C(=O)N/N=C/c4ccc(-c5cn6ccccc6[n+]5C)cc4)cc3)cc2)cn2ccccc21 | inactive: > 100 µM
[O-][Cl+3]([O-])([O-])[O-].[O-][Cl+3]([O-])([O-])[O-].c1ccn2c(N3CCOCC3)[n+]3c4ccccc4[n+]4c(N5CCOCC5)n5ccccc5c4c3c2c1 | inactive: > 100 µM
COc1ccc(C(=O)C#Cc2cnc(O)nc2O)cc1 | inactive: 17.5 µM
